# Data taken from the supplement of paper PMC8728848.
# This is one part of the list.
# B1: PX14375C-bth-509-28-509 (Bacteroides thetaiotaomicron) (protein)
# chain: RSPQGQFTEDDNPNALVNGKIYNVYTMMRSFDITAGTPAIAIHYLRSEDSEKGSIPSDGSDVAEMYDDFLYTPTNGLLGSYWGKNYAIIYQCNDILDAIAEKETAGQTETEDIINKGEASFFRAYCYFNLVRAFGEVPLVTYKINDASEANIPKTTADKIYEQIDTDLKTAEESLPETWSTEYTGRLTWGAARSLHARTYMMRSDWDNMYKASTDVINKGLYNLKTPYNEIFTDDGENSGGSIFELQCTATAALPQSDVIGSQFCEVQGVRGAGQWDLGWGWHMATQLMADAYETGDPRKNATLLYFRKTDDEPITPENTNEPYGESPISPAMGAYFNKKAYTDPALRKEYTNKGFWVNIRLIRYSDVVLMAAEAANEKNIPGEAVDYLEMVRARARGTNTNILPKITTNDQGELREAIRHERRVELGLEPDRFYDLVRWGIASEVLHAAGKVNYQDKNALLPLPQSEIDKSKGVLVQNPDY
# Key:
# Assay in all cases: glycan array binding signal (z-score within array); higher = stronger binding
# Conditions in all cases: glycan notation: IUPAC condensed, linker removed
# [1] = target: Gal6S(b1-4)Glc6S
# Method in brief: (§1)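 Glycan array data came from 3228 arrays in the Consortium for Functional Glycomics database, and only arrays with an available protein sequence were kept. Glycan names were put into IUPAC-condensed notation, and columns mapping to the same glycan were averaged. The binding signal is a within-array Z-score, averaged across arrays of one protein sequence run at different concentrations or buffers and across linkers. A negative Z-score can be read as non-binding.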
# [2] = target: Gal6S(b1-4)GlcNAc
# Method in brief: as §1
# [3] = target: Gal6S(b1-4)GlcNAc6S
# Method in brief: as §1
# [4] = target: GalNAc(a1-3)Gal
# Method in brief: as §1
# [5] = target: GalNAc(a1-3)GalNAc
# Method in brief: as §1
# [6] = target: GalNAc(a1-3)GalNAc(b1-3)Gal(a1-4)Gal(b1-4)Glc
# Method in brief: as §1
# [7] = target: GalNAc(a1-3)GalNAc(b1-3)Gal(a1-4)Gal(b1-4)GlcNAc
# Method in brief: as §1
# [8] = target: GalNAc(b1-3)Gal
# Method in brief: as §1
# [9] = target: GalNAc(b1-3)Gal(a1-4)Gal(b1-4)GlcNAc
# Method in brief: as §1
# [10] = target: GalNAc(b1-3)Gal(a1-4)Gal(b1-4)GlcNAc(b1-3)Gal(b1-4)Glc
# Method in brief: as §1
# [11] = target: GalNAc(b1-3)Gal(a1-6)Gal(b1-4)Glc
# Method in brief: as §1
# [12] = target: GalNAc(b1-3)GalNAc
# Method in brief: as §1
# [13] = target: GalNAc(b1-3)GlcNAc
# Method in brief: as §1
# [14] = target: GalNAc(b1-4)Gal(b1-4)Glc
# Method in brief: as §1
# [15] = target: GalNAc(b1-4)GlcNAc
# Method in brief: as §1
# [16] = target: GalNAc(b1-4)GlcNAc(b1-2)Man
# Method in brief: as §1
# [17] = target: GalNAc(b1-4)GlcNAc(b1-2)Man(a1-3)[GalNAc(b1-4)GlcNAc(b1-2)Man(a1-6)]Man(b1-4)GlcNAc(b1-4)GlcNAc
# Method in brief: as §1
# [18] = target: GalNAc(b1-4)GlcNAc(b1-3)GalNAc(b1-4)GlcNAc
# Method in brief: as §1
# [19] = target: GalNAc(b1-4)GlcNAc6S
# Method in brief: as §1
# [20] = target: GalNAc(b1-6)GalNAc
# Method in brief: as §1
# [21] = target: GalNAc3S(b1-4)GlcNAc
# Method in brief: as §1
# [22] = target: GalNAc3S(b1-4)GlcNAc3S
# Method in brief: as §1
# [23] = target: GalNAc3S(b1-4)[Fuc(a1-3)]GlcNAc
# Method in brief: as §1
# [24] = target: GalNAc4S6S(b1-4)GlcNAc
# Method in brief: as §1
# [25] = target: GalNAc6S(b1-4)GlcNAc
# Method in brief: as §1
# [26] = target: Glc(a1-4)Glc
# Method in brief: as §1
# [27] = target: Glc(a1-4)Glc(a1-4)Glc(a1-4)Glc
# Method in brief: as §1
# [28] = target: Glc(a1-6)Glc(a1-6)Glc
# Method in brief: as §1
# [29] = target: Glc(a1-6)Glc(a1-6)Glc(a1-6)Glc
# Method in brief: as §1
# [30] = target: Glc(b1-4)Glc
# Method in brief: as §1
# [31] = target: Glc(b1-6)Glc
# Method in brief: as §1
# [32] = target: GlcA(b1-3)Gal
# Method in brief: as §1
# [33] = target: GlcA(b1-3)GlcNAc
# Method in brief: as §1
# [34] = target: GlcA(b1-6)Gal
# Method in brief: as §1
# [35] = target: GlcA3S(b1-3)Gal(b1-4)GlcNAc(b1-2)Man
# Method in brief: as §1
# [36] = target: GlcA3S(b1-3)Gal(b1-4)GlcNAc(b1-3)Gal(b1-4)Glc
# Method in brief: as §1
# [37] = target: GlcNAc(a1-3)Gal(b1-4)GlcNAc
# Method in brief: as §1
binder,measurement,setting,value
B1,glycan array binding signal (z-score),[1],-0.059
same,glycan array binding signal (z-score),[2],-0.076
same,glycan array binding signal (z-score),[3],-0.224
same,glycan array binding signal (z-score),[4],-0.02
same,glycan array binding signal (z-score),[5],0.047
same,glycan array binding signal (z-score),[6],-0.305
same,glycan array binding signal (z-score),[7],-0.463
same,glycan array binding signal (z-score),[8],-0.121
same,glycan array binding signal (z-score),[9],-0.011
same,glycan array binding signal (z-score),[10],0.244
same,glycan array binding signal (z-score),[11],-0.426
same,glycan array binding signal (z-score),[12],1.2
same,glycan array binding signal (z-score),[13],-0.255
same,glycan array binding signal (z-score),[14],-0.326
same,glycan array binding signal (z-score),[15],0.086
same,glycan array binding signal (z-score),[16],-0.066
same,glycan array binding signal (z-score),[17],-0.171
same,glycan array binding signal (z-score),[18],-0.228
same,glycan array binding signal (z-score),[19],-0.027
same,glycan array binding signal (z-score),[20],-0.334
same,glycan array binding signal (z-score),[21],-0.123
same,glycan array binding signal (z-score),[22],-0.308
same,glycan array binding signal (z-score),[23],-0.31
same,glycan array binding signal (z-score),[24],-0.328
same,glycan array binding signal (z-score),[25],-0.093
same,glycan array binding signal (z-score),[26],-0.365
same,glycan array binding signal (z-score),[27],-0.348
same,glycan array binding signal (z-score),[28],-0.336
same,glycan array binding signal (z-score),[29],-0.39
same,glycan array binding signal (z-score),[30],-0.346
same,glycan array binding signal (z-score),[31],-0.146
same,glycan array binding signal (z-score),[32],-0.407
same,glycan array binding signal (z-score),[33],-0.189
same,glycan array binding signal (z-score),[34],-0.403
same,glycan array binding signal (z-score),[35],-0.295
same,glycan array binding signal (z-score),[36],-0.335
same,glycan array binding signal (z-score),[37],-0.468
